The campaign covered roughly 410,000 compounds. About 6,400 (1.6%) were called active. Inconclusive results, whose numbers are uncertain, are shown with a selection of clear calls. Calls come from the whole dose curve; as a rule, active = well fitted inhibition curve with a large enough effect; inconclusive = small, poorly fitted or top-dose-only effect; inactive = no such curve, though single readings can be large or run the other way. Potencies of inconclusive entries are doubtful fits and often do not repeat.
Each molecule was assayed against Glucagon-like peptide 1 receptor (Homo sapiens) (UniProt P43220) (assay: qHTS of GLP-1 Receptor Inverse Agonists (Inhibition Mode)). Details: HEK293 GLP-1R CRE-luciferase, luminescence, 24 h, GLP-1R form is constitutively active; series mostly up to 38.3 µM.
Chain of UniProt P43220 (P43220 whole entry, looked up): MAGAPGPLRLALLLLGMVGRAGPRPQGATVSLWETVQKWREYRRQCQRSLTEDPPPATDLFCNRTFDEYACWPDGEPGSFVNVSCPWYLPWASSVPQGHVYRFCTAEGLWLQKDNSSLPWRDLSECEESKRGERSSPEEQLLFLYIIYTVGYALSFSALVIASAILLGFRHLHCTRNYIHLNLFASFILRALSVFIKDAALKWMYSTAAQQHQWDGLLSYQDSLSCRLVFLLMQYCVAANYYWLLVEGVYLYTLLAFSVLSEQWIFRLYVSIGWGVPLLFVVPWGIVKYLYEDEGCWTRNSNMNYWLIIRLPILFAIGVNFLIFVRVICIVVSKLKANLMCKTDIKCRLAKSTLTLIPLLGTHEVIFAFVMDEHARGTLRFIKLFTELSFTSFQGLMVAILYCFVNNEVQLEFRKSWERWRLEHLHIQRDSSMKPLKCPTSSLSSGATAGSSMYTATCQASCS
Outline: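 Using stably transfected HEK293 (constitutively active GLP-1R, cAMP-luciferase reporter), compounds were incubated 24 hr and luciferase measured by luminescence.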
Note: nearly all actives have a fitted effect of over 55% in size.
Potency is the fitted concentration of half-maximal effect; tags give direction and shape of the fitted curve.

Potency, inconclusive:
Cc1ccc(CNC(=O)c2cc(S(=O)(=O)N3CCCCC3)ccc2N2CCOCC2)cc1 10 µM [inhibitor, partial curve, poor fit]
CC[C@H](C)[C@H](NC(=O)c1ccc(Cl)cc1)C(=O)OCC(=O)c1ccc2c(c1)NC(=O)CO2 31.6 µM [inhibitor, single point]
O=C(CN1C2CCCC1CC(NC(=O)c1ccccc1)C2)Nc1ccccc1 (stereo not given) 12.6 µM [inhibitor, partial curve, poor fit]
CCCn1c(=N)n(CC(O)c2ccc(C)cc2)c2ccccc21 (stereo not given) 8.91 µM [inhibitor, partial curve, poor fit]
COc1ccc(S(=O)(=O)N2CCN(CCOc3ccccc3Cl)CC2)cc1OC 15.8 µM [inhibitor, single point]
Cc1ccc(C(=O)/C=C/c2cc(Br)cc(Br)c2O)o1 15.8 µM [inhibitor, partial curve, poor fit]
NC1=NC[C@H](c2ccccc2)N1CCc1cc(C(F)(F)F)cc(C(F)(F)F)c1 10 µM [inhibitor, single point]
CCOc1ccc(S(=O)(=O)c2c(C(=O)c3ccc(C)c(C)c3)cnc3ccccc23)cc1 12.6 µM [inhibitor, single point]
CCOC(=O)c1ccc(Nc2nnc(C(C)(C)C)c(=O)[nH]2)cc1 7.94 µM [inhibitor, partial curve, poor fit]
CC(C)(C)NC(=O)/C=C/c1cccc(C(F)(F)F)c1 12.6 µM [inhibitor, single point]
CN(C)CCNS(=O)(=O)c1ccc(N2CCN(c3ccc(F)cc3)CC2)c([N+](=O)[O-])c1 2 µM [inhibitor, full curve, poor fit]
COc1ccc(OC)c(CNc2ncnc3c2nc2n3CCCC2)c1 28.2 µM [inhibitor, single point]
Cc1ccc(NC(=O)CN2CCC(NC(=O)c3cccc(F)c3)CC2)cc1C 11.2 µM [inhibitor, single point]
Cc1ccc(NC2=C(CC(=O)O)C(c3ccccc3)N(c3ccc(C)cc3)C2=O)cc1 (stereo not given) 1.78 µM [inhibitor, single point]
CC1C(=O)N(Cc2ccccc2F)c2ccccc2N1C(=O)c1c(F)cccc1F (stereo not given) 14.1 µM [inhibitor, single point]
Cc1ccc(NC(=O)c2c(C)oc3ccc(O)c(CN(C)Cc4ccccc4)c23)c(C)c1 28.2 µM [inhibitor, single point]
O=C(c1ccc2c(c1)N(Cc1cccc(Cl)c1)C(=O)c1ccccc1S2(=O)=O)N1CCN(c2ccccn2)CC1 0.447 µM [inhibitor, full curve, poor fit]
CCOC(=O)C(CCc1ccccn1)c1ccccc1 (stereo not given) 8.91 µM [inhibitor, partial curve, poor fit]
CCOC(=O)c1ccc(NC(=S)NCc2ccccc2)cc1 11.2 µM [inhibitor, partial curve, poor fit]
Cc1c(C(=O)N2CCN(CCc3ccccc3)CC2)oc2ccccc12 10 µM [inhibitor, partial curve, poor fit]
COc1ccc([C@H]2C[C@@H](n3cc(-c4ccc(F)cc4)nn3)[C@H](O)CN2CC2CCCCC2)cc1 1.58 µM [inhibitor, full curve, poor fit]
C#CCOc1ccc(/C=C2/C(=O)NN(c3ccccc3)C2=O)cc1OC 2.82 µM [inhibitor, single point]
O=C(COc1ccc(F)cc1)Nc1ccc(S(=O)(=O)N(Cc2ccccc2)c2ccccc2)cc1 11.2 µM [inhibitor, single point]
CC1=C([N+](=O)[O-])C(c2ccc(O)c(O)c2)NC(=O)N1 (stereo not given) 0.501 µM [inhibitor, full curve, poor fit]
O=C(CN1CCN(C(=O)c2ccc(OCc3cn4ccccc4n3)cc2)CC1)Nc1cccc(F)c1 28.2 µM [inhibitor, single point]
O=S(=O)(Nc1cc2nc3ccccc3nc2n1Cc1ccccc1)c1ccc(Cl)cc1 10 µM [inhibitor, partial curve, poor fit]
CCCCCCCNC(=O)C1(CC2CC(c3ccc(Cl)cc3)=NO2)CCN(C(=O)c2cc(OCC)c(OCC)c(OCC)c2)CC1 (stereo not given) 2.24 µM [inhibitor, full curve, poor fit]
CCc1cccc(C)c1NC(=O)c1cc(S(=O)(=O)N2CCCCCC2)cn1C 28.2 µM [inhibitor, single point]
O=[N+]([O-])c1ccc(Nc2ccccc2O)c([N+](=O)[O-])c1 28.2 µM [inhibitor, single point]
O=C(NCC(=O)N(CCc1ccccc1)C(C(=O)NC1CCCCC1)c1ccncc1)c1ccco1 (stereo not given) 11.2 µM [inhibitor, single point]
O=C(O)[C@H](Cc1ccccc1)NC(=O)N1CCN(c2cccc(C(F)(F)F)c2)CC1 28.2 µM [inhibitor, single point]
COc1ccc(-c2cc(C(F)(F)F)nc(SCCC(=O)Nc3cccc(OC)c3)n2)cc1 11.2 µM [inhibitor, partial curve, poor fit]
CC(C)OC(=O)c1cccnc1N1CCN(c2cccc(Cl)c2)CC1 28.2 µM [inhibitor, single point]
O=c1c2c3c(sc2ncn1-n1cccc1)CCCCC3 28.2 µM [inhibitor, single point]
Cc1cccc(N2CCN(C(=O)c3cccn3-c3nnc(N4CCCCC4)s3)CC2)c1C 28.2 µM [inhibitor, single point]
CC1(C)OC(=O)C2=C(C[C@@H](C3CC3)O[C@H]2CCc2cccc(Cl)c2)O1 10 µM [inhibitor, partial curve, poor fit]
Cc1ccccc1N/C(SCc1ccc(Cl)cc1)=C(/C#N)C(N)=O 10 µM [inhibitor, partial curve, poor fit]
CCc1ccc(NC(=O)c2ccc(NS(=O)(=O)c3c(C)noc3C)cc2)cc1 11.2 µM [inhibitor, single point]
COc1ccc(NC(C)C(=O)N/N=C/c2ccccc2OCc2ccc(Br)cc2)cc1 (stereo not given) 28.2 µM [inhibitor, single point]
CCOC(=O)c1ccc(-c2c(-c3cc(OC)c(OC)c(OC)c3)noc2C)cc1F 1.41 µM [inhibitor, full curve, poor fit]
C/C(CCC1CC(C)OC1=O)=N/Nc1nc(-c2ccccc2)cs1 (stereo not given) 5.62 µM [inhibitor, partial curve, poor fit]
O=C(NC(=S)NC1C2CC3CC(C2)CC1C3)c1ccccc1 (stereo not given) 7.94 µM [inhibitor, partial curve, poor fit]
Cc1ccc(Cl)cc1N1CCN(C(=O)c2nn(C)c3c2CS(=O)(=O)c2ccccc2-3)CC1 31.6 µM [inhibitor, single point]
Cc1oc(-c2ccc(Cl)cc2)nc1CN1CCCC(C(=O)NCc2ccccn2)C1 (stereo not given) 10 µM [inhibitor, partial curve, poor fit]
CC1CN(C(=S)SCC(=O)c2ccc([N+](=O)[O-])cc2)CC(C)O1 (stereo not given) 20 µM [inhibitor, single point]
O=C(Nc1ccccc1Oc1cccnc1)C1CCCN(C/C=C/c2ccc(F)cc2)C1 (stereo not given) 14.1 µM [inhibitor, partial curve, poor fit]
COc1ccc(CCNC(=O)CCc2cn(Cc3ccc(F)cc3)c3ccccc23)cc1OC 28.2 µM [inhibitor, single point]
COc1ccc(-c2csc(NC(=O)c3ccoc3C)n2)cc1 8.91 µM [inhibitor, partial curve]

Potency, active:
Cc1cccc(NC(=O)c2ccc(Cl)c(S(=O)(=O)N3CCc4ccccc43)c2)n1 11.2 µM

Potency, inactive:
CCc1c(C)nc(SCc2nc(-c3ccccc3C)no2)[nH]c1=O
CCN(C(=O)Cc1c(C(=O)O)c(C)cn1C)c1cccc(Cl)c1
COc1ccc(C(=O)C2CCN(C(=O)c3ccc(OC)cc3)CC2)cc1
CCOC(=O)[C@]12CCCC=C1N(Cc1ccc3c(c1)OCO3)C(=O)[C@H](CC(=O)N1CCN(C(=O)C3CC3)CC1)C2
Cc1c(Cc2ccc3c(c2)OCO3)sc(NC(=O)c2ccccc2)c1C(N)=O
CC(C)[C@H](NS(=O)(=O)c1cccc(C(F)(F)F)c1)C(=O)OCC(N)=O
CCc1ccc(CNC(=O)c2sc3nc[nH]c(=O)c3c2C)cc1
O=c1cc(CSc2ccccc2)[nH]c2ccc(F)cc12
CN1CCN(C2=C(NS(=O)(=O)c3ccccc3)C(=O)c3ccccc3C2=O)CC1
CCOC(=O)c1ccc(NC(=O)C23CCC(C)(C(=O)O2)C3(C)C)cc1 (stereo not given)
Cc1cc(C)n2cc(CSc3ccc(Cl)cc3)nc2n1

Source: PubChem BioAssay AID624417 (National Center for Advancing Translational Sciences (NCATS), 2012)
